# Test results published in PubChem BioAssay (NCATS).
# Where “and” joins values, the source holds several entries; their conditions need not be identical. Identical values can stand only once. The inconclusive results got no clear call from the source; some entries with a clear call stand among them for comparison. Potencies of inconclusive entries are doubtful fits and often do not repeat. Calls of active or inactive are those of the source. Calls come from the whole dose curve; as a rule, active = well fitted cell-killing curve with a large enough effect; inconclusive = small, poorly fitted or top-dose-only effect; inactive = no such curve, though single readings can be large or run the other way.
# Test: qHTS of pediatric cancer cell lines to identify multiple opportunities for drug repurposing: Primary screen for NB-EBc1 cells (AID 1347095)
# Conditions: NB-EBc1 neuroblastoma viability, CellTiter-Glo luminescence, 48 h; series mostly up to 46 µM
# Source text: Drug repurposing or repositioning has been offered as a strategy for drug development in oncology programs. This approach has special potential for childhood cancers and other rare or orphan diseases, where the expected return on new drug development has been a disincentive to pharmaceuticals. […] In this project we exploit the poly-pharmacology of drugs to discover new indications via phenotypic screening of a panel of 19 well-characterized cell lines derived from solid tumors seen in children and adolescents. The goal is to identify approved drugs with previously unrecognized anticancer properties that has the potential to reveal new mechanisms and biological processes involved in carcinogenesis or drug resistance. We employed a titration-based paradigm (quantitative high-throughput screening or qHTS), where all compounds were tested at multiple concentrations for their effect on cell viability. Concentration-response curves (CRCs) were derived directly from the primary screen, and both potency and efficacy values were used to identify compounds with robust bioactivity profiles. We screened the NIH Chemical Genomics Center (NCGC) Pharmaceutical Collection (NPC) and Mechanism Interrogation Plate (MIPE) small molecule collections of approved and investigational compounds against these cell lines; and measured metabolically active cells after 48 hours of compound treatment as a proxy for cell viability. […] Assay Submitter: Nathalia J. Martinez, National Center for Advancing Translational Sciences, National Institutes of Health, Rockville, MD, USA; email: natalia.martinez@nih.gov Shen, M et al. Quantitative high-throughput phenotypic screening of pediatric cancer cell lines identifies multiple opportunities for drug repurposing. Oncotarget 2017 Dec 19;9(4):4758-4772. PMID 29435139.
# The cells were obtained from University of North Carolina (UNC), Pediatric Preclinical Testing Program (PPT), and Coriell Institute (CI). qHTS cell viability assay: Cells were assayed in growth media at a density of 500-1,000 cells/well. Five microliters of cells were dispensed into 1,536-well, white, solid-bottom, TC-treated plates (Greiner Bio One) using a multidrop dispenser and incubated at 37 degrees C, 5% CO2, under a humidified atmosphere for 5 hours. Twenty-three nanoliters of compounds and controls (neutral control DMSO or positive control bortezomib at final concentration of 2.3 µM) were subsequently transferred by Kalypsys pintool. For primary screens, the MIPE collection was tested at 11-point dilutions (final concentrations range from 0.78 nM to 46 µM) and the NPC collection at 8-point dilutions (final concentrations range from 0.59 nM to 46 µM). Compounds tested in follow-up screens were assayed at 11-point dilutions. Cells were incubated for 48 hours, followed by addition of 3 µL of CellTiter-Glo (Promega). After a 15 min incubation at room temperature, samples were analyzed for luminescence intensity using a ViewLux High-throughput CCD imager equipped with clear filters.
# Potency is the fitted concentration of half-maximal effect; tags give direction and shape of the fitted curve.
row,Structure (SMILES),Potency
1,NC(=O)c1cnc(-c2ccc(C3(N)CCC3)cc2)c(-c2ccccc2)c1,inactive
2,CO[C@H]1C[C@@H]2CC[C@@H](C)[C@@](O)(O2)C(=O)C(=O)N2CCCC[C@@H]2C(=O)O[C@H]([C@H](C)C[C@@H]2CC[C@H](OC(=O)C(C)(CO)CO)[C@H](OC)C2)CC(=O)[C@H](C)C=C(C)[C@@H](O)[C@@H](OC)C(=O)[C@H](C)C[C@H](C)C=CC=CC=C1C,active: 9.35 µM
3,OC(c1cc(C(F)(F)F)nc2c(C(F)(F)F)cccc12)C1CCCCN1 (stereo not given),inactive
4,O=C1NC(=O)C(=Cc2cccc(C(F)(F)F)c2)S1,"inconclusive: 18.7 µM [cytotoxic, partial curve]"
5,CCCC1OC2C[C@@H]3[C@H]4CCC5=CC(=O)C=C[C@]5(C)[C@H]4C(O)C[C@]3(C)[C@]2(C(=O)CO)O1 (stereo not given in full),"inconclusive: 23.5 µM [cytotoxic, partial curve]"
6,COCCCOc1cc(C[C@@H](C[C@H](N)[C@@H](O)C[C@H](C(=O)NCC(C)(C)C(N)=O)C(C)C)C(C)C)ccc1OC,inactive
7,OC(CN1CCN(c2cccc(Cl)c2)CC1)C(c1ccccc1)c1ccccc1 (stereo not given),"inconclusive: 37.2 µM [cytotoxic, single point]"
8,O=C(N[C@H](CO)[C@H](O)c1ccc([N+](=O)[O-])cc1)C(Cl)Cl,inactive
9,COc1cc2nc(N3CCN(C(=O)c4ccco4)CC3)nc(N)c2cc1OC,"inconclusive: 37.2 µM [cytotoxic, single point]"
10,C[C@@]1(C(=O)Nc2ccc(F)nc2)CCCN1c1nc(Nc2cc(C3CC3)[nH]n2)c2cccn2n1,active: 0.0264 µM
11,CCCCCCCCCCCCCC(=O)N[C@H](CO)[C@H](O)c1ccc([N+](=O)[O-])cc1,"inconclusive: 29.6 µM [cytotoxic, partial curve, poor fit]"
12,CC1CCN(c2cc(N3CCN(C)CC3)ccc2NC(=O)c2cc(C#N)c[nH]2)CC1,"inconclusive: 20.9 µM [cytotoxic, partial curve]"
13,C1Cc2[nH]nc(-c3nn[nH]n3)c2C1,inactive
14,Cc1ccc([C@@H]2O[C@H](CO)[C@@H](O)[C@H](O)[C@@H]2O)cc1Cc1ccc(-c2ccc(F)cc2)s1,inactive
15,O=c1oc2c(O)c(O)cc3c(=O)oc4c(O)c(O)cc1c4c23,"inconclusive: 10.5 µM [cytotoxic, partial curve]"
16,CCCn1c(=O)c2[nH]c(-c3cnn(Cc4cccc(C(F)(F)F)c4)c3)nc2n(CC)c1=O,"inconclusive: 33.2 µM [cytotoxic, single point]"
17,CC(C)(C)[N+]([O-])=Cc1ccc(S(=O)(=O)O)cc1S(=O)(=O)O,inactive
18,CNC(=O)c1ccc(-c2cnc3ncc(Cc4ccc5ncccc5c4)n3n2)cc1F,"inconclusive: 37.2 µM [cytotoxic, single point]"
19,Cc1ccc(Nc2cc(-c3cccc(N4C(=O)c5ccccc5C4=O)c3)ncn2)cc1NS(C)(=O)=O,"inconclusive: 37.2 µM [cytotoxic, single point]"
20,O=c1ccc2ccc(O)c(O)c2o1,"inconclusive: 33.2 µM [cytotoxic, single point]"

row,Structure (SMILES),Potency
1,CC(=O)OC1C(C)OC(Oc2c(-c3ccc(O)cc3)oc3cc(O)cc(O)c3c2=O)C(O)C1OC(C)=O (stereo not given),"inconclusive: 33.2 µM [cytotoxic, single point]"
2,c1ccc(-c2nn3c(c2-c2ccnc4cc(OCCN5CCOCC5)ccc24)CCC3)nc1,"inconclusive: 18.7 µM [cytotoxic, partial curve, poor fit]"
3,CC(C)OC(=O)C(C(=O)OC(C)C)=C1SC=CS1,"inconclusive: 23.5 µM [cytotoxic, partial curve, poor fit]"
4,Nc1nnc(-c2cccc(Cl)c2Cl)c(N)n1,inactive
5,Cc1cc(C(=O)NOCCO)c(Nc2ccc(I)cc2F)n(C)c1=O,"inconclusive: 0.0187 µM [cytotoxic, full curve]"
6,Oc1ccc(-c2nc(-c3ccc(F)cc3)c(-c3ccncc3)[nH]2)cc1,inactive
7,C[C@]12CCC3c4ccc(O)cc4CCC3C1CCC2=O (stereo not given in full),inactive
8,O=C1NC(=O)C(=Cc2ccc3c(c2)OC(F)(F)O3)S1,"inconclusive: 11.8 µM [cytotoxic, partial curve]"
9,COc1ccc(CC2SC(=O)NC2=O)cc1C(=O)NCc1ccc(C(F)(F)F)cc1 (stereo not given),"inconclusive: 33.2 µM [cytotoxic, single point]"
10,Clc1ccc(C(Cn2ccnc2)OCc2c(Cl)cccc2Cl)c(Cl)c1 (stereo not given),"inconclusive: 29.9 µM [cytotoxic, single point] and inconclusive: 33.2 µM [cytotoxic, single point]"
11,O=C(Nc1ccccc1Br)N[C@@H]1CCN(c2ccc(C(F)(F)F)cn2)C1,"inconclusive: 18.7 µM [cytotoxic, partial curve]"
12,CC[C@@H]1C=C(C)C[C@H](C)C[C@H](OC)[C@H]2O[C@@](O)(C(=O)C(=O)N3CCCC[C@@H]3C(=O)O[C@H](C(C)=C[C@@H]3CC[C@H](Cl)[C@H](OC)C3)[C@H](C)[C@@H](O)CC1=O)[C@H](C)C[C@H]2OC,"inconclusive: 33.2 µM [cytotoxic, partial curve, poor fit]"
13,CC[C@H](CO)Nc1nc(NCc2ccccc2)c2ncn(C(C)C)c2n1,"inconclusive: 26.4 µM [cytotoxic, single point]"
14,Cc1nc(C(=O)NCC(=O)O)c(O)c2ccc(Oc3ccccc3)cc12,"inconclusive: 16.6 µM [cytotoxic, partial curve]"
15,C=C1C(=O)OC2C=C(C)CCC=C(C)CCC12 (stereo not given),"inconclusive: 20.9 µM [cytotoxic, single point]"
16,Cc1cn2c(-c3cn[nH]c3)cnc2c(Nc2ccc(C(=O)N3CCNCC3)cc2F)n1,"inconclusive: 26.4 µM [cytotoxic, single point]"
17,O=C(O)C(O)Cc1ccc(O)c(O)c1 (stereo not given),"inconclusive: 13.2 µM [cytotoxic, partial curve, poor fit]"
18,CC(C)C[C@H](NC(=O)[C@H](CCc1ccccc1)NC(=O)CN1CCOCC1)C(=O)N[C@@H](Cc1ccccc1)C(=O)N[C@@H](CC(C)C)C(=O)[C@@]1(C)CO1,active: 53.1 nM and active: 29.6 nM
19,CC(C)n1nc(-c2ccc3oc(N)nc3c2)c2c(N)ncnc21,active: 0.0132 µM
20,CC[C@@]1(O)C(=O)OCc2c1cc1n(c2=O)Cc2cc3cc(O)ccc3nc2-1,active: 0.0118 µM
